# Source: a collection of fitness landscapes (doi:10.1038/s41467-024-54723-y)
# Whole data set: some 18,000 sequences, median “TetR repression strength (sort-seq, GFP reporter)” near 0.23, cut for the highest 2% near 0.68. This is one part of the list.
# Target: TetR (class B, Tn10) (UniProt P04483)
# Experiment: TetR repression strength (sort-seq, GFP reporter) (relative to tetO2 = 1); higher = stronger repression
# Conditions: E. coli
# Outline: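 Escherichia coli SIG10-MAX cells carried a low-copy plasmid library in which eight operator positions were randomized between a constitutive promoter and sfGFP, and TetR was expressed constitutively. After 5 h of growth at 37 °C in LB with 50 µg/mL chloramphenicol, 10^6 cells were FACS-sorted into 13 fluorescence bins, and each bin was Illumina-sequenced. Repression strength was the top bin index plus one minus the read-weighted mean bin, divided by the value for the unaltered operator. Across three independent transformations, only library members with ≥30 reads in every replicate and a CV ≤0.5 were averaged.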
# UniProt P04483, sequence (P04483 whole entry): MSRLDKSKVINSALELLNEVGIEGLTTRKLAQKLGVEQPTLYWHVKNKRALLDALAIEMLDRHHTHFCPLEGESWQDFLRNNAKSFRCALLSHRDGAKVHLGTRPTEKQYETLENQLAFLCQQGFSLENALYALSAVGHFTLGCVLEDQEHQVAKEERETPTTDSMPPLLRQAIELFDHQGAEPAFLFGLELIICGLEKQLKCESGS
row,Sequence,TetR repression strength
1,TCCCATGGAGTTTTAGAGA,0.281
2,TCCCTGCCAGTCGTAGAGA,0.311
3,TCCCGTAGAGTAAAGGAGA,0.196
4,TCCCGTTTAGTTGGGGAGA,0.314
5,TCCCATCTAGTATCTGAGA,0.199
6,TCCCTACAAGTGAGGGAGA,0.0864
7,TCCCCAATAGTGGGTGAGA,0.279
8,TCCCAGGAAGTTCGAGAGA,0.22
9,TCCCTGATAGTAGGTGAGA,0.197
10,TCCCGCTGAGTTTATGAGA,0.411
11,TCCCTATTAGTTCTAGAGA,0.419
12,TCCCTGAAAGTTGCAGAGA,0.174
13,TCCCGTGCAGTGAGGGAGA,0.278
14,TCCCTGTAAGTTCACGAGA,0.218
15,TCCCGGGGAGTGCCCGAGA,0.263
16,TCCCAGCGAGTATGAGAGA,0.0754
17,TCCCTCAAAGTACAGGAGA,0.228
18,TCCCCAACAGTATCTGAGA,0.355
19,TCCCATTCAGTTGAAGAGA,0.171
20,TCCCGGGGAGTGCAAGAGA,0.334
21,TCCCCAGCAGTGCGTGAGA,0.0161
22,TCCCTGTTAGTGGGCGAGA,0.301

row,Sequence,TetR repression strength
1,TCCCCTCAAGTCCAGGAGA,0.159
2,TCCCTATCAGTAGAAGAGA,0.457
3,TCCCAGGTAGTGTCGGAGA,0.195
4,TCCCGGGTAGTACAAGAGA,0.335
5,TCCCGTTTAGTCACAGAGA,0.364
6,TCCCTACCAGTGTTGGAGA,0.37
7,TCCCGCTTAGTGGCAGAGA,0.227
8,TCCCGTTTAGTGAATGAGA,0.238
9,TCCCGCACAGTGGGAGAGA,0.157
10,TCCCGGTTAGTTGGAGAGA,0.158
11,TCCCAGTGAGTTAAGGAGA,0.151
12,TCCCTTGAAGTGCGCGAGA,0.218
13,TCCCATGCAGTCTCGGAGA,0.0532
14,TCCCGTAAAGTGCCGGAGA,0.307
15,TCCCCTTGAGTTTTTGAGA,0.278
16,TCCCAGGGAGTGTGCGAGA,0.196
17,TCCCGGTCAGTGCAGGAGA,0.531
18,TCCCGTAGAGTACTTGAGA,0.0106
19,TCCCGGTAAGTGGAGGAGA,0.211
20,TCCCGAAAAGTGAGAGAGA,0.106
21,TCCCCCCTAGTTGTGGAGA,0.213
22,TCCCGAGAAGTGATAGAGA,0.425

row,Sequence,TetR repression strength
1,TCCCGCCGAGTTAAGGAGA,0.19
2,TCCCGGGGAGTTCGAGAGA,0.243
3,TCCCAAAAAGTACCAGAGA,0.319
4,TCCCGTTAAGTTTTGGAGA,0.119
5,TCCCAACTAGTTTTAGAGA,0.508
6,TCCCAACGAGTACTTGAGA,0.0467
7,TCCCTTGCAGTTCTGGAGA,0.482
8,TCCCTCCGAGTGACTGAGA,0.365
9,TCCCTGGAAGTAGTGGAGA,0.139
10,TCCCTGGCAGTGGAAGAGA,0.255
11,TCCCAAGTAGTCCGGGAGA,0.258
12,TCCCTTGTAGTGGACGAGA,0.354
13,TCCCGGAGAGTACGGGAGA,0.264
14,TCCCTCAGAGTAGTGGAGA,0.187
15,TCCCCAAAAGTCCTAGAGA,0.524
16,TCCCTAGTAGTAAGTGAGA,0.237
17,TCCCAAGAAGTGCGTGAGA,0.0863
18,TCCCGGCGAGTACCGGAGA,0.196
19,TCCCGTGTAGTCCGAGAGA,0.296
20,TCCCAGCAAGTGTAGGAGA,0.0283
21,TCCCAACAAGTTTATGAGA,0.207
